# According to ChEMBL document CHEMBL4888484, “Replenishing the malaria drug discovery pipeline: Screening and hit evaluation of the MMV Hit Generation Library 1 (HGL1) against asexual blood stage Plasmodium falciparum ,using a nano luciferase reporter read-out” (2022):
# In all, about 150,000 compounds went through this assay and about 540 (0.36%) showed an effect of 50% or more. The list shows a part of the results.
# System: Plasmodium falciparum
# Experiment: Primary screen in NF54 nanoGlo assay, in single point, at 2uM, 72h; a lower Z score goes with more inhibition
# Assay type: functional, Erythrocyte
# Details: timepoint 72 hour
SMILES,% Inhibition [%],Z score
CN(CC1CCOCC1)C(=O)C1CCC1,-3,0.54
CCCCNC(=O)N(C)CCc1c[nH]cn1,0,0.06
Cc1csc(CN(C)C(=O)c2c(C)n[nH]c2C2CC2)n1,-3,0.61
c1cc2c(cc1-c1nnc3n1CCCC[C@H]3C1CCOCC1)OCCO2,2,-0.25
CN(C)c1cc(Cl)c2nonc2c1N,-2,0.21
Cc1c(C(=O)N2CCCCCCC2)cnn1CCC#N,-7,1.37
O=C(NCc1cc(O)ncn1)c1ccc2c(c1)n(CC1CC1)c(=O)n2C1CCCCC1,-2,0.42
Cc1cnc(C(=O)N2CC3OCCN(Cc4ccccc4)C3C2)cn1 (stereo not given),-11,0.91
CCc1nc(C)c(C(=O)N2C[C@H]3C[C@H](c4ccccc4)CC[C@@]3(C(=O)O)C2)o1,0,-0.02
CCOC1CC(NC(=O)N2Cc3cnn(C)c3CC(C)(C)C2)C1n1cccn1 (stereo not given),0,0.07
CCn1nc(C)c(NS(=O)(=O)c2cccc3ccn(C)c23)c1C,6,-0.7
CC(=O)Nc1nc(C(=O)NCC2CCCCC2)cs1,-13,2.01
Cc1c[nH]c(CN(Cc2cocn2)Cc2cocn2)c(C)c1=O,-15,1.73
COc1ccc(-c2ncnc3[nH]cnc23)c(OC)c1OC,9,-1.15
C[C@H]1CCCCN1S(=O)(=O)c1cccc(C(=O)Nc2ccsc2)c1,-10,0.99
CC(C)N1C[C@H](NC2CCCCCCC2)C[C@H]1C(=O)NCCc1ccccc1F,2,-0.3
O=C1CC2(CCN(c3ccncc3F)CC2)CN1Cc1ccc(F)c(F)c1,-6,0.71
CO[C@H]1CCCN(C(=O)NCCc2cc(C)no2)CC1,5,-0.88
O=C(c1cnc(C2CC2)nc1)N(Cc1ccccc1)Cc1ccccc1,-9,1.11
Cc1ccc(-c2noc(-c3sccc3S(=O)(=O)N(C)c3ccc(C)c(C)c3)n2)cc1,-13,1.68
O=C(O)CNC(=O)CN1CCN(Cc2ccccc2)C2(CCCCC2)C1,-8,0.94
O=C1N[C@@](CCc2ccccc2)(C2CCNCC2)C(=O)N1Cc1cncs1,-4,0.8

SMILES,% Inhibition [%],Z score
Cc1ccccc1[C@@H](CC(=O)N1CCC(O)(Cn2ccnc2)CC1)c1ccccc1,-4,0.68
CCOCCN[C@@H](C)c1cc2n(n1)CCC2,-1,0.19
CCCOc1cc(S(=O)(=O)N(C)C)ccc1Br,0,0.06
Cn1cccc1C(=O)C(=O)N1CCN(c2cccc(C(F)(F)F)c2)CC1,-4,0.37
O=C(Cc1ccccc1)NCc1cnoc1-c1ccc(F)cc1,10,-1.52
Cc1scc(C(=O)N(C)C2CCOC(c3ccc(F)cc3)C2)c1C (stereo not given),1,-0.23
NC[C@H]1CN(Cc2cc(=O)c3cccc(Cl)c3[nH]2)CCO1,1,-0.15
Cc1csc(NC(=O)[C@@H]2CCC[C@@H](N(C)C)CN(C)C(=O)C2)n1,-7,1.13
CN(CCCN1CCOCC1)c1cc(C#N)ccn1,0,0.03
CC(C)[C@H](C)NC(=O)c1cccnc1O,-4,0.54
COc1cccc2c(C(=O)N3CC[C@H](O)C[C@@H]3C)n[nH]c12,8,-1.58
COc1ccccc1-c1ccnc(-n2ncc(C(=O)N3CC[C@H](N(C)C)C3)c2C)n1,3,-0.34
COc1cccc(CC2=NO[C@H](C(=O)N3CCN(c4ccccc4Cl)CC3)C2)c1,16,-1.98
O=S(=O)(NC[C@H]1COCO1)c1cc(F)cc(Cl)c1,-7,0.77
N#Cc1c(NC(=O)CCN2CCN(S(=O)(=O)c3ccccc3F)CC2)sc2c1CCCCC2,-1,0.14
COc1ccc(C(=O)N(Cc2cc3ccc(C)cc3nc2N2CCN(C(C)=O)CC2)C2CC2)c(OC)c1,-10,2.06
COCCN1C[C@@H](Cc2cc(N)ncn2)CC1=O,-6,0.73
C[C@@H](C(=O)NCC(C)(C)N1CCOCC1)n1cncn1,4,-0.77
O=C(NCc1nccnc1-c1ccncc1)c1cncc(F)c1,20,-2.51
COc1ccc(N[C@@H](C)c2nc(C3CC3)no2)cn1,-1,0.13
N#Cc1nc2c(S(=O)(=O)c3ccccc3)c(N)n(Cc3ccc(Cl)cc3)c2nc1C#N,-16,2.57
COc1ccc(CNC(=O)c2coc(COc3ccc4ncccc4c3)n2)cc1,5,-0.71

SMILES,% Inhibition [%],Z score
Cc1cc(S(=O)(=O)N[C@H]2CCNC2=O)c(C)s1,3,-0.28
COc1ccc(-c2noc(C[C@H]3CCCCN3C(C)=O)n2)cc1OC,-9,1.22
O=C(c1nnn2c1CO[C@H](c1ccccc1)C2)N1CCc2ccccc2C1,-15,1.75
NS(=O)(=O)c1ccc(CNC(=O)[C@H]2CCCN(Cc3ccco3)C2)cc1,3,-0.33
CN(Cc1nnsc1Cl)[C@H]1CCN(c2ccccc2)C1=O,-11,1.45
O=C(Nc1ncccc1O)C1CN(c2cc(-n3cncn3)ncn2)C1,2,-0.22
CCCn1ncc(C(=O)NCc2nc(C3CCCCC3)no2)c1C,-14,2.18
COC1Cc2ccccc2N(C(=O)c2ccc(S(=O)(=O)N3CCCCC3C)cc2)C1 (stereo not given),-12,1.58
O=C(COC(=O)CCN1C(=O)c2ccccc2C1=O)Nc1ccc(F)c(F)c1,-6,0.88
CCCCn1ncnc1Cc1ccc(F)c(F)c1F,-10,1.15
Cc1ccc(-c2ncc(C(=O)NCCCN(C)C3CCCC3)c(O)n2)cc1,-10,1.27
CCOc1ccc(-c2cc(CCCC(=O)NCCc3ccc(OC)c(OC)c3)no2)cc1,-6,1.03
Cc1ccc(CCNC(=O)[C@@H]2CCC(=O)N2CCc2ccccc2)cc1,-6,0.99
O=C(CC1CCCCC1)NCC1CCN(c2cc(-c3cccnc3)n[nH]2)CC1,-17,1.71
Cc1nnsc1C(=O)N[C@H]1CCOC2(CCOCC2)C1,-19,1.71
COC(=O)N1CC[C@H](Nc2ccc(C#N)cc2F)C1,2,-0.19
C[C@H]1CN(c2nccc3[nH]ccc23)CCCO1,-5,1
COc1cc2c(C(=O)N3CCCOCC3)c[nH]c2cc1Cl,-4,0.37
COc1ccc(-c2noc(CCN3CCCN(C)CC3)n2)cc1OC,26,-2.92
CC(C)n1[nH]c(=O)c2c1NC(=O)C[C@@H]2c1ccc(F)c(F)c1F,26,-2.93
Cc1sc(-c2ccno2)cc1S(=O)(=O)N1CCCCC1,-10,1.02
Cn1ncc2c(NC(C3CC3)C3CC3)ncnc21,-1,0.13

SMILES,% Inhibition [%],Z score
Cn1nc2nc(N3CCCC3)nc(-c3cccc(Oc4ccccc4)c3)c2c1N,-13,1.68
CC(C)c1nc2cc(C(=O)N3CCN(c4cnccn4)CC3)ccc2o1,-2,0.28
Cc1cc(C(=O)N[C@H]2CC(=O)N(C(C)C)C2)cc(=O)[nH]1,-14,1.78
Cc1nc(-c2ncc(C(=O)N3CCC[C@H](C#N)C3)c(O)n2)cs1,-14,1.37
CC(C)(C)C1CCC(O)(CNC(=O)C[C@H]2CCS(=O)(=O)C2)CC1 (stereo not given in full),-15,2.48
O=C1CCC2(CCN(C(=O)c3ncc[nH]3)CC2)CN1Cc1ccncc1,-19,2.53
O=C(NCc1cccc2[nH]ccc12)N1CC[C@@H](O)C1,0,0.01
CCc1nc(CN(CCOC)CC(F)(F)F)no1,-11,1.16
C[C@@H](COCc1ccccc1)C(=O)Nc1nnc(C(F)(F)F)[nH]1,-16,3.08
Cc1nn(C(C)(C)C)cc1C(=O)N1CCOc2ccc(F)cc2C1,1,-0.19
O=C(NC[C@@H]1C[C@@H]2C=C[C@@H]1C21CC1)c1coc(COc2ccc(F)cc2)n1,-19,1.77
COCC(=O)N1CC[C@H](Nc2ncc(F)c(OC)n2)[C@@H](O)C1,14,-2.73
COc1cccc(-n2nnc3c(N4CCN(C(=O)C5CCCC5)CC4)ncnc32)c1,-8,1.61
O=C(c1cc2ccccc2o1)N1CC(Nc2cnccn2)C1,-22,2.55
O=C(c1ccoc1)N1CCC(n2c(=O)[nH]c3ccccc3c2=O)CC1,0,0.01
Cc1oc(-c2ccsc2)nc1CN1CCn2ncnc2C1,-12,1.79
CC(C)(C)C(=O)NCCCC(=O)NCCCOc1ccc(F)cc1,-8,1.09
COc1ccccc1-n1cnc2nc3c(c(-c4ccccc4)c21)CCCC3,-7,1.3
Cc1ccc(NC(=O)N2CC[C@H](Cc3nccs3)C2)c(N(C)C)n1,-4,0.92
